Assay results from PubChem BioAssay AID651820 (National Center for Advancing Translational Sciences (NCATS), 2012).
The whole screen tested about 340,000 compounds, of which about 12,000 (3.5%) were called active. Inconclusive means that the source gave no clear call. Such entries were picked first, then a sample of the others. Calls follow the shape of the dose curve; as a rule, active = well fitted inhibition curve with a large enough effect; inconclusive = small, poorly fitted or top-dose-only effect, or another doubt; inactive = no such curve, though single readings can be large or run the other way. No potency is given beside an inconclusive call; the fits are too rough.

Assay: qHTS Assay for Inhibitors of Hepatitis C Virus (HCV)
Details: Huh7.5.1 HCVcc-Cre (HCVcc is cell-culture hepatitis C virus) infection, luciferase reporter, 44 h; activity change, negative = inhibition: at 41.8 µM (top of the series) unless noted
Outline: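 Seed cells (1,000/well) for 4 h; treat with compound and infect with HCVcc-Cre, moi about 0.5. Incubate 44 h, then detect luciferase activity.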
% is scaled to controls: 0 for no effect and ±100 for the full control effect; potency is read from the fitted curve at half-maximal effect; tags tell the direction and shape of the fitted curve.

Compound	Potency	activity change, negative = inhibition
COc1ccc(S(=O)(=O)N2CCCCC2)cc1NC(=S)Nc1cccc(Cl)c1C	inconclusive [inhibitor, single point]	
Cc1c(/C=N/NC(=O)c2cccs2)c2ccccc2n1Cc1ccccc1Cl	inconclusive [inhibitor, full curve]	
O=C(Nc1ccc2oc(-c3ccccc3)nc2c1)c1cccnc1	inconclusive [inhibitor, partial curve]	
OCCC1CN(Cc2cccn2-c2ncccn2)CCN1CCc1ccccc1 (stereo not given)		inactive: -5.96%
Cc1ccc(S(=O)(=O)Nc2cccc3cccnc23)cc1	inconclusive [inhibitor, single point]	
CC(=O)c1ccccc1NC(=O)c1ccc(OCc2c(C)noc2C)cc1	inconclusive [inhibitor, full curve]	
Cc1nn(-c2ccccc2)c(C)c1C(=O)OC(C)C(=O)NC1CCCCC1 (stereo not given)	active: 12.6 µM	
COc1ccc(Cl)cc1NC(=O)CN(C)C(=O)c1ccc(COc2ccccc2)cc1	inconclusive [inhibitor, single point]	
COc1ccc(Nc2cnn(-c3nc4ccccc4s3)c(=O)c2Cl)cc1	inconclusive [inhibitor, single point]	
COc1ccc(-c2nnc(SCc3cccc(C#N)c3)o2)cc1	inconclusive [inhibitor, single point]	
CN(Cc1ccccc1)C(=O)COC(=O)c1cc(Cl)nc(Cl)c1		inactive: 15.9%
O=C(Nc1ccc(Br)cc1)c1cc(-c2ccncc2)nc2ccccc12	inconclusive [inhibitor, single point]	
O=C(O)C1=C[C@H](c2ccc3c(c2)OCO3)C[C@H](OCc2ccc(CO)cc2)O1	inconclusive [inhibitor, single point]	
CN1C(=O)NC(c2ccc(O)cc2)C(C(=O)c2cccs2)C1(O)C(F)(F)F (stereo not given)	inconclusive [inhibitor, single point]	
CN(c1cccc(NC(=O)CN(c2ccc(Cl)c(Cl)c2)S(=O)(=O)c2ccccc2)c1)S(C)(=O)=O	inconclusive [inhibitor, single point]	
Cc1c(C(C)(C)C)s/c(=N/S(=O)(=O)c2ccccc2)n1C		inactive: 9.96%
CC(C)(C)c1ccc(-n2nc(C(N)=O)c(O)cc2=O)cc1		inactive: 20.7%
COc1ccc2sc(/C=C/c3ccccc3O)[n+](C)c2c1		inactive: -16.3%
COc1ccc(-n2c(-c3ccco3)nc3c(cnn3-c3ccccc3C)c2=O)cc1		inactive: -6.24%
COc1cccc(NP(=O)(Oc2ccccc2)Oc2ccccc2)c1	inconclusive [inhibitor, single point]	
COc1ccc(CN2CCN(C(=O)Cn3c(=O)oc4cc(Cl)ccc43)CC2)c(OC)c1OC	active: 3.55 µM	
COc1ccc(-c2cc(C(=O)OCC(=O)N3CCCC3)c3ccccc3n2)cc1	inconclusive [inhibitor, partial curve]	
CCN1CCN(c2ccc(S(=O)(=O)N3CCOCC3)cc2NC(=O)C(C)Oc2cccc(Cl)c2)CC1 (stereo not given)	inconclusive [inhibitor, partial curve]	
Cc1cccc(OCc2nnc(SCC(=O)N(c3ccccc3)C3CCS(=O)(=O)C3)o2)c1 (stereo not given)	inconclusive [inhibitor, partial curve]	

Compound	Potency	activity change, negative = inhibition
COC(=O)c1cccc(NC2CC(=O)N(c3ccc(OC)c(OC)c3)C2=O)c1 (stereo not given)		inactive: 0.756%
O=C(Nc1nc2ccccc2[nH]1)c1ccc([N+](=O)[O-])cc1		inactive: 1.19%
COc1ccc2c(c1)C(=O)OC2CC(=O)O (stereo not given)	inconclusive [inhibitor, single point]	
CN(CCc1ccccn1)C(=O)Nc1ccc(C(C)(C)C)cc1	inconclusive [inhibitor, single point]	
COc1cc2c(cc1OC)C(C)N(C(=O)Nc1ccccc1)CC2 (stereo not given)	inconclusive [inhibitor, single point]	
Cc1cc(NC(=O)CC2CCCC2)n(-c2nc3ccccc3[nH]2)n1	inconclusive [inhibitor, partial curve]	
O=S(=O)(c1ccc(-c2csc(-c3cccnc3)n2)cc1)N1CCOCC1		inactive: -9.58%
C#CCNC(=O)C1=C[C@@H](c2ccc(Br)cc2)C[C@@H](OCc2ccc(CO)cc2)O1	inconclusive [inhibitor, single point]	
CN(C#N)c1nc(Cl)nc(Nc2cccc(Cl)c2)n1	inconclusive [inhibitor, single point]	
CC(=O)c1sc(NC(=O)c2ccc(F)cc2)nc1-c1ccccc1	inconclusive [inhibitor, partial curve]	
O=C(CCOc1ccccc1)Nc1ccnn1C1CCN(Cc2ccc(O)cc2)CC1		inactive: -1.02%
COc1cc(C(C)=O)ccc1OCCCN1CCC(Cc2ccccc2)CC1	inconclusive [inhibitor, partial curve]	
CCOc1ccccc1NC(=S)Nc1ncccc1C	active: 6.31 µM	
Cc1cc(NS(=O)(=O)c2ccc(NS(=O)(=O)c3ccc(CC(C)C)cc3)cc2)nc(C)n1	active: 3.98 µM	
CN(C)c1ccc(C(CNC(=O)c2ccccc2)c2c[nH]c3ccccc23)cc1 (stereo not given)	inconclusive [inhibitor, single point]	
Cc1ccc2nc(N3CCN(C(=O)c4ccco4)CC3)sc2c1	inconclusive [inhibitor, partial curve]	
Cc1ccc(-c2csc(N/N=C/c3ccco3)n2)c(C)c1	inconclusive [inhibitor, single point]	
CCCCCN(C(=O)CCC(=O)OC(C)C(=O)NCc1ccccc1)c1c(N)n(CCCC)c(=O)[nH]c1=O (stereo not given)	inconclusive [inhibitor, single point]	
CCCOc1ccc(N/C=C/C(=O)c2cc(OC)c(OC)c(OC)c2)cc1	inconclusive [inhibitor, partial curve]	
Cc1sc2ncnc(N3CCN(Cc4ccccc4)CC3)c2c1-c1ccccc1	inconclusive [inhibitor, single point]	
CCOC(=O)c1cccc(C2=CC(=O)CC(C)(C)C2)c1	inconclusive [inhibitor, single point]	
CCCC(=O)N(Cc1cc(=O)[nH]c2ccccc12)c1ccc(C)cc1C		inactive: -17.9%
Cc1ccc(NC(=S)NNC(=S)Nc2ccc(C)cc2)cc1	inconclusive [inhibitor, single point]	
CCn1c(C2CC(=O)N(Cc3ccccc3)C2)nc2ccccc21 (stereo not given)	inconclusive [inhibitor, partial curve]	

Compound	Potency	activity change, negative = inhibition
CCc1ccc(C2=NNC(=Nc3cccc(S(=O)(=O)N(C)C)c3)SC2)cc1	active: 4.47 µM	
COCCN1CCn2c(nc3cc(NC(=O)c4cccs4)ccc32)C1		inactive: -11.7%
c1ccc(Nc2c3c(nc4ccccc24)CCC3)cc1	inconclusive [inhibitor, single point]	
COc1ccc(-c2noc(-c3ccc(Cl)cc3[N+](=O)[O-])n2)cc1OC	inconclusive [inhibitor, partial curve]	
CN(CCO)C1=NS(=O)(=O)c2cc([N+](=O)[O-])ccc21	inconclusive [inhibitor, single point]	
Cc1cc(C)c2oc(C(=O)Nc3ccc(S(=O)(=O)N4CCC(C)CC4)cc3)cc(=O)c2c1		inactive: -5.71%
Cc1cccc(NC(=O)c2ccc(COc3cccc4ccccc34)o2)n1	inconclusive [inhibitor, partial curve]	
CCN1C(=O)[C@H]2[C@@H](c3ccc(C)cc3)N3C(=O)N(c4cccc(Br)c4)C(=O)[C@@]3(CC(C)C)[C@H]2C1=O		inactive: 1.78%
CC(NC(=O)c1ccc(F)cc1)c1ccc2c(c1)CCCC2 (stereo not given)	inconclusive [inhibitor, single point]	
CCN(CC)S(=O)(=O)c1csc(C(=O)NCc2ccccc2)c1	inconclusive [inhibitor, single point]	
CC(NC(=O)C1CCC(CNS(=O)(=O)c2ccc3c(c2)C(C)(C)C(=O)N3C)CC1)c1ccccc1 (stereo not given)	inconclusive [inhibitor, single point]	
O=C(CCl)Nc1cccc(S(=O)(=O)NC2=NCCCCC2)c1	active: 6.31 µM	
CC(C)[C@H](NC(=O)c1ccccc1)C(=O)NC1=NCCS1	inconclusive [inhibitor, single point]	
CN(C(=S)Nc1ccc(SC(F)F)cc1)C(c1ccccc1)c1ccccc1	inconclusive [inhibitor, single point]	
C/C(CC(=O)NC1CCCCC1)=N\NC(=O)COc1ccc(C)cc1Br		inactive: -1.19%
CC(C)(C)CC(C)(C)Nc1c(-c2ccc(O)cc2)nc2cnccn12	inconclusive [inhibitor, single point]	
O=C(Nc1cc(Cl)ccc1N1CCOCC1)c1ccc(N2CCCC2=O)cc1	active: 35.5 µM	
N=c1c2c3c(sc2ncn1Nc1ccccc1)CCC3	inconclusive [inhibitor, single point]	
COc1cccc2c1c(NC(=O)Nc1ccc(F)cc1F)nn2C		inactive: 4.43%
COc1ccc(CNC(=O)c2ccc(Cn3cc(Br)cn3)o2)cc1		inactive: -13.8%
CCOC(=O)c1ccc(N2C(=O)c3n[nH]c(-c4ccco4)c3C2c2ccc([N+](=O)[O-])cc2)cc1 (stereo not given)	active: 14.1 µM	
CSC1=C(C#N)C(c2ccccc2C)C(C#N)=C(N)N1 (stereo not given)	inconclusive [inhibitor, single point]	
